Drawing on PMC5892938, this text covers binding signal (log2 fold change) for 20 sequences.

The other results are listed elsewhere or left out. At the low end of the ranking the order means little.

The target of this assay is GST-SBP-SLBP (stem-loop binding protein) (UniProt Q14493). Put plainly: targeted RNA Bind-n-Seq.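 Note: DESeq read counts versus GST-SBP nonspecific binding control pulldown.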 The settings on record: RBNS binding buffer: 25 mM Tris pH 7.5, 150 mM KCl, 3 mM MgCl2, 0.1% Tween, 0.5 mg/mL BSA, 1 mM DTT; 27 nM protein, 750 pM RNA pool; temperature not stated; high values mean tight binding.
With “GGUCACGUCUCAAUCAACUCAUUCCCCAGGGAAAACCCUGGCUAUUUCAACAGCUCGCAGUCAAG”, the binding signal (log2 fold change) turned out to be 0.0465.
The value for “GGUCACGUCUCAAUCAACUCAAUCCCAGGAGUUUACUCCUGCAAUGUCAACAGCUCGCAGUCAAG” was 0.104.
The value for “GGUCACGUCUCAAUCAACUCAUUUUCAGGAGUUUACUCCUGCAUAGUCAACAGCUCGCAGUCAAG” was 0.235.
On to “GGUCACGUCUCAAUCAACUCUUCCUCAGGAGUUUUCUCCUGUUUAUUCAACAGCUCGCAGUCAAG”, for which the binding signal (log2 fold change) amounted to 0.0107.
As for “GGUCACGUCUCAAUCAACUCUUACGAGGGGGGGAAAACCCCUUUGCCCUCAAUAUCAACAGCUCGCAGUCAAG”, the figure is -0.0349; as for “GGUCACGUCUCAAUCAACUCAAUUCCCAGGGAAAGCCCUGGUAUACUCAACAGCUCGCAGUCAAG”, -0.0615.
Turning to “GGUCACGUCUCAAUCAACUCAUCGUCAGGAGUUUUCUCCUGCUUUUUCAACAGCUCGCAGUCAAG”, the binding signal (log2 fold change) turned out to be 0.274.
The value for “GGUCACGUCUCAAUCAACUCUAUUCCCAGGGAAAGCCCUGGCUUUUUCAACAGCUCGCAGUCAAG” was -0.0248; that for “GGUCACGUCUCAAUCAACUCUUUCCCCAGGGAAAGCCCUGGUAAUUUCAACAGCUCGCAGUCAAG” was 0.0874; that for “GGUCACGUCUCAAUCAACUCAAGUCCAGGAGUUUUCUCCUGUAUAUUCAACAGCUCGCAGUCAAG” was -0.115.
As to “GGUCACGUCUCAAUCAACUCAAAAGAGGGGGGGAAAACCCCUUUACCCUCACUUUCAACAGCUCGCAGUCAAG”, the binding signal (log2 fold change) was -0.163.
In the case of “GGUCACGUCUCAAUCAACUCUUUCUCCAGGGAAAUCCCUGGCAAUCUCAACAGCUCGCAGUCAAG”, the binding signal (log2 fold change) was -0.122.
“GGUCACGUCUCAAUCAACUCAUACGAGGGGGGGAAAACCCCUUUGCCCUCAUCAUCAACAGCUCGCAGUCAAG”: the binding signal (log2 fold change) is 0.0664.
As for “GGUCACGUCUCAAUCAACUCAAGUCCAGGAGUUUUCUCCUGCAAAUUCAACAGCUCGCAGUCAAG”, the figure is 0.214.
Consider “GGUCACGUCUCAAUCAACUCAUUCGCAGGAGUUUACUCCUGGUUUCUCAACAGCUCGCAGUCAAG”, for which the binding signal (log2 fold change) worked out at 0.00351.
As for “GGUCACGUCUCAAUCAACUCCUUAGAGGGGGGGAAAACCCCUUUACCCUCAAAUUCAACAGCUCGCAGUCAAG”, the figure is -0.557; as for “GGUCACGUCUCAAUCAACUCUACAGAGGGGGGGAAAACCCCUUUGCCCUCCACAUCAACAGCUCGCAGUCAAG”, 0.28; as for “GGUCACGUCUCAAUCAACUCAGUUCCAGGAGUUUACUCCUGUUUAUUCAACAGCUCGCAGUCAAG”, -0.134.
Take “GGUCACGUCUCAAUCAACUCUUACGAGGGGGGGAAAACCCCUUUACCCUCUUUAUCAACAGCUCGCAGUCAAG”: the binding signal (log2 fold change) was -0.166.
As for “GGUCACGUCUCAAUCAACUCAAUUUCCAGGGAAAGCCCUGGCUAAUUCAACAGCUCGCAGUCAAG”, the figure is 0.0289.
